Results from the antibiotic and cytotoxicity screens of Wong et al. (2023).
The other results are listed elsewhere or left out.

What was measured:
[1] = test system: HSkMC (human skeletal muscle cells); assay: cytotoxicity call (relative viability < 0.9); settings: 10 µM
[2] = test system: HepG2; assay: cytotoxicity call (relative viability < 0.9); settings: 10 µM
[3] = test system: S. aureus RN4220; assay: growth inhibition call (relative growth <= 0.2); settings: 50 µM

| SMILES | cytotoxicity call [1] | cytotoxicity call [2] | growth inhibition call [3] |
| --- | --- | --- | --- |
| O=C(CNc1ccc2c(c1)oc1ccccc12)c1ccc(F)cc1 | inactive | inactive | inactive |
| C[C@@H]1CN([C@H](C)CO)C(=O)c2cc(C#CC3CCCC3)cnc2O[C@@H]1CN(C)S(=O)(=O)c1cccc(F)c1 | inactive | inactive | inactive |
| CCC(=O)OC(CC(=O)O)C[N+](C)(C)C.[Cl-] (stereo not given) | inactive | inactive | inactive |
| C[C@@H]1CN([C@H](C)CO)C(=O)c2cccc(NC(=O)Nc3ccc(C(F)(F)F)cc3)c2O[C@H]1CN(C)Cc1ccc(Cl)c(Cl)c1 | active | inactive | inactive |
| C[C@@H]1CN([C@H](C)CO)C(=O)c2cc(NS(=O)(=O)c3cn(C)cn3)ccc2O[C@@H]1CN(C)C(=O)Nc1ccc(F)cc1 | inactive | inactive | inactive |
| C[C@@H]1CN([C@@H](C)CO)C(=O)c2cc(NS(=O)(=O)c3ccc(Cl)cc3)ccc2O[C@@H](C)CCCCO[C@H]1CN(C)Cc1ccc2c(c1)OCO2 | inactive | active | inactive |
| COc1ccc(NC(=O)Nc2ccc3c(c2)C(=O)N([C@H](C)CO)C[C@H](C)[C@@H](CN(C)C(=O)c2ccccc2)OCCCC[C@@H](C)O3)cc1 | inactive | inactive | inactive |
| Cc1cccc(S(=O)(=O)N2C[C@H](O)COC[C@@H]3O[C@@H](CC(=O)NCc4ccc5c(c4)OCO5)CC[C@H]32)c1 | inactive | inactive | inactive |
| O=C(C[C@H]1C[C@@H]2c3cc(NC(=O)Nc4ccccc4)ccc3O[C@@H]2[C@H](CO)O1)NCCN1CCCCC1 | inactive | inactive | inactive |
| COc1ccc(S(=O)(=O)Nc2cccc3c2O[C@@H](CN(C)Cc2ccc(Oc4ccccc4)cc2)[C@@H](C)CN([C@H](C)CO)C3=O)cc1 | inactive | inactive | inactive |
| C[C@H](CO)N1C[C@H](C)[C@H](CN(C)C(=O)Nc2cccc3ccccc23)Oc2ncc(-c3ccccc3)cc2C1=O | inactive | inactive | inactive |
| C[C@@H]1CCCCO[C@@H](CN(C)S(=O)(=O)c2ccc(F)cc2)[C@@H](C)CN([C@@H](C)CO)C(=O)c2cc(NC(=O)C3CCCCC3)ccc2O1 | inactive | inactive | inactive |
| Cc1ccc(S(=O)(=O)N(C)C[C@H]2Oc3c(NC(=O)c4cc(C)nn4C)cccc3C(=O)N([C@@H](C)CO)C[C@@H]2C)cc1 | inactive | inactive | inactive |
| CC(=O)OC1CC23CC24CCC(OC2OCC(O)C(O)C2O)C(C)(C)C4CCC3C2(C)CC3OC4(CC(C)C3C12C)OC(O)C1(C)OC41 (stereo not given) | inactive | inactive | inactive |
| C[C@H]1CN([C@@H](C)CO)C(=O)Cc2cc(NC(=O)Nc3cccc4ccccc34)ccc2O[C@H]1CN(C)C(=O)Nc1ccc2c(c1)OCO2 | inactive | inactive | inactive |
| CC1=NC(=O)C2(CCNCC2)N1 | inactive | inactive | inactive |
| C[C@H]1CCCCO[C@H](CN(C)Cc2ccncc2)[C@@H](C)CN([C@@H](C)CO)C(=O)c2cc(NC(=O)Nc3ccccc3)ccc2O1 | inactive | inactive | inactive |
| Cc1ccc(S(=O)(=O)N(C)C[C@H]2OCCCC[C@H](C)Oc3ccc(NC(=O)C4CCCCC4)cc3C(=O)N([C@@H](C)CO)C[C@H]2C)cc1 | inactive | inactive | inactive |
| CC(N)C(O)c1cccc(O)c1.O=C(O)C(O)C(O)C(=O)O (stereo not given) | inactive | inactive | inactive |
| C[C@H]1CN([C@@H](C)CO)C(=O)Cc2cc(NC(=O)Nc3ccccc3)ccc2O[C@H]1CN(C)Cc1ccc(-c2ccccc2)cc1 | inactive | inactive | inactive |
| C[C@H]1CCCCO[C@@H](CN(C)C(=O)c2ccccc2)[C@@H](C)CN([C@@H](C)CO)C(=O)c2cc(NC(=O)CCC(F)(F)F)ccc2O1 | inactive | inactive | inactive |
| CC(C)N1CC[C@H](CN(C)Cc2ccc(Oc3ccccc3)cc2)Oc2c(NC(=O)c3ccncc3)cccc2C1=O | inactive | inactive | inactive |
| COc1ccc(-c2cn(CCCNC(=O)[C@H](Cc3ccccc3)NS(=O)(=O)c3ccc(C)cc3)nn2)cc1OC | inactive | inactive | inactive |
| CO[C@@H]1CN(C)C(=O)c2cc(NC(=O)C3CCC3)ccc2OC[C@@H](C)N(C(=O)Nc2ccc(C(F)(F)F)cc2)C[C@H]1C | inactive | inactive | inactive |
| O=C(C[C@@H]1C=C[C@@H](NS(=O)(=O)c2ccc(F)cc2)[C@H](CO)O1)N1CCC(Cc2ccccc2)CC1 | inactive | inactive | inactive |
